We go through 24 compounds from publication PMC4336329 (PLoS ONE, 2015).

The whole screen tested about 310,000 compounds, of which about 2,200 (0.71%) showed an effect of 50% or more. Effects have a minus sign here. The list shows a part of the results.

For this test, the target named is human ether-à-go-go-related gene (hERG) potassium channel (human, UniProt Q12809). Kind of test: primary screen, population patch clamp on CHO cells stably expressing hERG.
Chain of human ether-à-go-go-related gene (hERG) potassium channel (Q12809 whole entry, looked up): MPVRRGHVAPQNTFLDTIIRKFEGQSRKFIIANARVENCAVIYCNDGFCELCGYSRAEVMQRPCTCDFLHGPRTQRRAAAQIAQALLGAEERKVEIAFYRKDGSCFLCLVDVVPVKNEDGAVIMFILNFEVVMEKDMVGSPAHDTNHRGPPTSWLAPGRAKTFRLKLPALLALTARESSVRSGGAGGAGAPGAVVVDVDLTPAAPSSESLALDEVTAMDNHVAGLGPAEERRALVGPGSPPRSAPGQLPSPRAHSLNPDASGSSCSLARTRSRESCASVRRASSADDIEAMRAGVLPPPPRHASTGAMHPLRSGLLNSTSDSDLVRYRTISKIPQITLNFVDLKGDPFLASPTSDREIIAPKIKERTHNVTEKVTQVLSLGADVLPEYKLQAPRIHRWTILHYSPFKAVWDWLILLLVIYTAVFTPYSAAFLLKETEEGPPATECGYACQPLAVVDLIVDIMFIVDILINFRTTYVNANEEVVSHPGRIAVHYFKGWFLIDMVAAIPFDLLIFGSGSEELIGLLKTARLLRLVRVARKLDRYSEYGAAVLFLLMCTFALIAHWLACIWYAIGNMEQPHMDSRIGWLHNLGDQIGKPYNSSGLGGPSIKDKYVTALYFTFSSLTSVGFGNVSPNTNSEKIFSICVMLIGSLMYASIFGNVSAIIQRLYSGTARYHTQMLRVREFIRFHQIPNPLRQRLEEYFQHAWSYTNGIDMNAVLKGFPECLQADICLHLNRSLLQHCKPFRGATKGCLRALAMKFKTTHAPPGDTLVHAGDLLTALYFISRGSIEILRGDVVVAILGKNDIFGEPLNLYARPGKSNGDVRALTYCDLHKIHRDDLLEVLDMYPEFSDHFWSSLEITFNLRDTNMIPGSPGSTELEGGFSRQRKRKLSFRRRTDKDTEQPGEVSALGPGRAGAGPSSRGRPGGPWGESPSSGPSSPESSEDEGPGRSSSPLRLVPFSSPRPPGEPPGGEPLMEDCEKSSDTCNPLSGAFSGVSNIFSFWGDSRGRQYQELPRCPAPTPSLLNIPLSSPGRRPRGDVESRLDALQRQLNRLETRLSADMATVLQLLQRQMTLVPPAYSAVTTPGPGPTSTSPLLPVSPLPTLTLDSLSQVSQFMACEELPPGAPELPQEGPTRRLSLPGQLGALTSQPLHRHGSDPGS
For `COc1ccc(Cl)cc1N(C(C)C(=O)NC1CCCC1)S(C)(=O)=O` (stereo not drawn), the “hERG current change (%, negative = inhibition) at 1uM” value was 6.74%.

For `CC1(C)CC(=O)C=C(NCC(O)c2ccccc2)C1` (stereo not drawn), the “hERG current change (%, negative = inhibition) at 1uM” value worked out at 14.7%.

Take `Cc1cc(N/N=C\c2ccc(Br)cc2)nc(-n2nc(C)cc2C)n1`: the “hERG current change (%, negative = inhibition) at 1uM” value came out at 17.8%.

For the compound `CCCCn1c(N)c(N(CCOC)C(=O)c2nn(CC)c(=O)c3ccccc23)c(=O)[nH]c1=O`, the “hERG current change (%, negative = inhibition) at 1uM” value came out at 9.16%.

As to `O=C(Cc1ccc(-n2c(=O)[nH]c3ccccc3c2=O)cc1)N1CCN(c2cccc(Cl)c2)CC1`, the “hERG current change (%, negative = inhibition) at 1uM” value was determined as 0.998%.

For `CN1CCN(C(=O)c2c(O)c3cccc4c3n(c2=O)CC4)CC1.Cl`, the “hERG current change (%, negative = inhibition) at 1uM” value amounted to 12.3%.

`Cn1c(SCC(=O)Nc2ccc3c(c2)OCCO3)nnc1-c1ccncc1`: the “hERG current change (%, negative = inhibition) at 1uM” value is 9.72%.

As for `COc1ccc(-c2cc(C(=O)NCc3cccnc3)no2)cc1OC`, the “hERG current change (%, negative = inhibition) at 1uM” value was 5.34%.

`C=CCSC(=S)NC1CCS(=O)(=O)C1` (stereo not drawn): the “hERG current change (%, negative = inhibition) at 1uM” value was found to be 5.2%.

Regarding `COc1ccc(S(=O)(=O)NCc2ccncc2)cc1NC(=O)c1ccccc1F`, the “hERG current change (%, negative = inhibition) at 1uM” value was 13.9%.

On to `Cc1ccc(-n2nc3cc(C)c(N)cc3n2)cc1`, for which the “hERG current change (%, negative = inhibition) at 1uM” value is 13.3%.

In the case of `C=CCNC(=O)CN1CCN(C(c2ccccc2)c2ccccc2)CC1.O=C(O)C(=O)O`, the “hERG current change (%, negative = inhibition) at 1uM” value is reported as 11.1%.

For the compound `CCC1(c2ccc(F)cc2)NC(=O)N(CC(=O)Nc2ccc(-c3nc4ccc(C)cc4s3)cc2)C1=O` (stereo not drawn), the “hERG current change (%, negative = inhibition) at 1uM” value amounted to 10.7%.

Regarding `CCN(CC)c1ccc(/C=C(/C#N)c2nc3ccccc3[nH]2)c(OC(C)C)c1`, the “hERG current change (%, negative = inhibition) at 1uM” value is -0.153%.

Regarding `COc1ccc(CCNC(=O)C2CCN(S(=O)(=O)N3CCC4(CC3)OCCO4)CC2)cc1OC`, the “hERG current change (%, negative = inhibition) at 1uM” value is on record as 5.86%.

On to `Cc1ccc(S(=O)(=O)NCC2COc3ccccc3O2)cc1` (stereo not drawn), for which the “hERG current change (%, negative = inhibition) at 1uM” value is 6.71%.

As for `Cc1nn(-c2ccccc2)nc1C(=O)Nc1ccc2[nH]ncc2c1`, the “hERG current change (%, negative = inhibition) at 1uM” value turned out to be 3.94%.

For `CC(C)Cc1nc(C(N)=O)c2[nH]c(=O)n(-c3ccc(F)cc3)c2n1`, the “hERG current change (%, negative = inhibition) at 1uM” value is given as 9.99%.

As to `Cc1cc(C)c(C#N)c(OCc2ccc(Cl)nc2)n1`, the “hERG current change (%, negative = inhibition) at 1uM” value is on record as 11.8%.

Regarding `Cc1cccc(Nc2nc3ccccc3s2)c1C`, the “hERG current change (%, negative = inhibition) at 1uM” value was found to be 4.7%.

As to `Cc1cc(NS(C)(=O)=O)c(=O)n(Cc2c(F)cccc2Cl)c1`, the “hERG current change (%, negative = inhibition) at 1uM” value was found to be 13.3%.

Turning to `CC(=O)c1c(C)[nH]c(C(=O)COC(=O)CCSc2ccccc2)c1C`, the “hERG current change (%, negative = inhibition) at 1uM” value was found to be 16%.

Regarding `O=C(COC(=O)c1cc(=O)[nH]c2ccccc12)NC1CCCC1`, the “hERG current change (%, negative = inhibition) at 1uM” value amounted to 13.5%.

`Cn1c(=O)oc2cc(S(=O)(=O)Nc3cccc4c3CCCC4)ccc21`: the “hERG current change (%, negative = inhibition) at 1uM” value is listed as 12.1%.
